Experimental data as given in patent US20260069693A1, “UROLITHINS AND T-CELL MEDIATED IMMUNE RESPONSE” (priority 2022, published 2026).

What was measured:
AOM-induced colon tumors = test: azoxymethane (AOM)-induced tumorigenesis, UA containing diet; assay type: in vivo, FVB mice; settings: UA containing diet (2.28 g/kg) vs control diet
From the text: Colorectal tumors were induced by 6 consecutive weekly injections of AOM on mice fed with food containing 2.28 g/kg Urolithin A (UA diet) or with control food. The diet was introduced one-week prior the first AOM injection and maintained until the end of the experiment at ˜20-24 weeks. The colons were collected for subsequent histological analysis as described below.
For histological analysis of colon tissue, colons were paraffin embedded using the “swiss roll” technique and serially sectioned at 200 μm. After deparaffinization and rehydration of the tissue, haematoxylin and eosin (H&E) staining and α-CD3 (IS503: DAKO) was performed using a Leica Bond Max following standard immunochemistry staining protocols. Stained sections were scanned using Aperio CS2 (Leica). AOM tumor lesion size and incidence were quantified using Aperio ImageScope software.

APTK-s.c. tumors = test: subcutaneous APTK tumors, UA-supplemented diet; assay type: in vivo, C57BL/6 mice; settings: CD8+ T cell depleting antibodies; control and UA-fed cohorts

O=c1oc2cc(O)ccc2c2ccc(O)cc12 [UA, Urolithin A]
infiltration of CD3+ T cells into the colonic mucosa (AOM-induced colon tumors): increased infiltration
tumor incidence (AOM-induced colon tumors; 18 weeks): significant decrease
tumor size (AOM-induced colon tumors; 18 weeks): significant decrease
tumor growth upon depletion of CD8+ T cells (APTK-s.c. tumors): exacerbated tumor growth in both control and UA-fed cohorts
